“And” between values parts separate entries of the source, which are not always exact repeats. Identical values can stand only once.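 Tested at 5 concentrations; 48 h exposure; 96-well plates; endpoints linearly interpolated, else capped at highest concentration. GI50 = concentration required for 50% inhibition of growth. The concentration for full growth arrest is given as TGI.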
Tested on: NCI-H322M lung
Test: DTP human tumour cell line panel, 48 h

Structure (SMILES)	TGI	GI50
CC(C)(C)OC(=O)NC1CCCC1C(=O)C1=CCCC1 (stereo unspecified)	> 100 µM	
O=C(NCCN1CCCCC1)c1ccc(Br)cc1	> 100 µM	
O=C1[C@@H]2C(c3ccc(Br)cc3)=NO[C@@H]2C(=O)N1c1ccc(Cc2ccc(N3C(=O)[C@H]4C(c5ccc(Br)cc5)=NO[C@H]4C3=O)cc2)cc1	> 3.48 µM	
O=C(CS(=O)(=O)c1nc2ccccc2nc1-c1ccccc1)Nc1ccc(F)cc1	> 100 µM	51 µM
COc1cnc2c(c1)C(=O)c1c-2n(CCCNC2=NCCS2)c(=O)c2cc(F)ccc12	19.3 µM	0.368 µM
CCCCCC(=O)N[C@@H](c1ccco1)[C@@H](O)C(=O)O[C@H]1C[C@@]2(O)[C@@H](OC(=O)c3ccccc3)[C@@H]3[C@]4(OC(C)=O)CO[C@@H]4C[C@H](O)[C@@]3(C)C(=O)[C@H](OC(C)=O)C(=C1C)C2(C)C	> 25 µM	0.000779 µM
Cc1ccccc1N=Nc1c(O)ccc2ccccc12	> 100 µM	
COc1cc[c]([Sn]([c]2ccc(OC)cc2)([c]2ccc(OC)cc2)[c]2ccc(OC)cc2)cc1	> 100 µM	66.2 µM
S=c1sc2c(s1)SC(c1ccccc1)CS2 (stereo unspecified)	> 100 µM	
O=C1C(Cl)N(c2c(Cl)cccc2Cl)C1c1c[nH]c2ccccc12 (stereo unspecified)	> 100 µM	
O=C1NC(=S)S/C1=C\c1cn(-c2ccccc2)nc1-c1ccccc1	31.3 µM	7.63 µM
O=C1N/C(=N\N=C\c2ccccc2)C(c2ccccc2)O1 (stereo unspecified)	> 100 µM	
CC(C)Oc1c(C2(c3ccccc3)SCCCS2)c(=O)c1=O	> 100 µM	
CC(=O)Nc1[nH]n(C)c(=O)c1-c1nnc(C)s1	> 100 µM	
CCOC(=O)[C@@H](C)C[C@H](Cc1ccccc1)NC(=O)c1csc([C@@H](C[C@H](C(C)C)N(C)C(=O)[C@@H](NC(=O)[C@H]2CCCCN2C)C(C)(C)CC)OC(C)=O)n1	> 16.7 µM	< 0.00167 µM
CCOC(=O)CSc1cc(Cl)c(C)cc1S(=O)(=O)/N=C(/N=C/c1ccc([N+](=O)[O-])s1)NNC	89.9 µM	26 µM
O=C(CNc1ccccn1)Nn1cnc2ccc(S(=O)(=O)Nc3ccccn3)cc2c1=O	> 100 µM	
C=C1CC(C)(COc2ccc3c(C)c(Cl)c(=O)oc3c2)OC1=O (stereo unspecified)	19 µM	
CC1(C)CCC(Sc2ccccc2)O1 (stereo unspecified)	> 100 µM	
CCOC(=O)C(NC(=O)OCc1ccccc1)C(=O)O (stereo unspecified)	> 100 µM	
N#CCCn1[nH]c(=O)c(Cl)c(Cl)c1=O	30.2 µM	
Cn1cc(/C=C\[N+](=O)[O-])c2ccccc21	> 100 µM	> 100 µM
N#CCn1c(=O)c(Oc2ccc(F)cc2F)cc2cnc(NC3CCOCC3)nc21	> 25 µM	> 25 µM
Cc1cc(=O)oc2ccc(OC/C=C3\CCC(=O)O3)cc12	37.4 µM	14.3 µM
O=C1CC(c2c[nH]c3ccc(F)cc23)C(=O)N1 (stereo unspecified)	> 100 µM	> 100 µM

Structure (SMILES)	TGI	GI50
CC(C)N(C(=O)C12C3C4C1C1C2C3C41C#N)C(C)C (stereo unspecified)	> 100 µM	
O=C(NN1C(=O)C(Cl)C1c1ccccc1O)c1ccccc1O (stereo unspecified)	> 100 µM	
CC1CC2C3CCC4=CC(=O)C=CC4(C)C3(F)C(O)CC2(C)C1(O)C(=O)COP(=O)(O)O (stereo unspecified)	> 500 µM	> 500 µM
CC(=O)CCCCn1c(=O)c2c(nc(Br)n2C)n(C)c1=O	> 100 µM	
COC(=O)C(CC(C)C)NC(=O)C(NC(=O)c1ccc(-c2ccc(Cl)cc2Cl)o1)C(C)C (stereo unspecified)	> 100 µM	
O=[N+]([O-])C(=C/c1ccccc1)/C(=C\c1ccccc1)[N+](=O)[O-]	54.1 µM	
COc1ccc(/C=c2\c(=O)[nH]c3nc4ccccc4c(=O)n23)cc1	> 100 µM	
CC1=CC2C(C=C1)S(=O)(=O)N1CC21c1ccccc1 (stereo unspecified)	> 100 µM	
CCN(CC)c1ccc(/C=C/C(=O)c2ccc(Nc3nc(Nc4ccccc4)nc(Nc4ccccc4)n3)cc2)cc1	> 100 µM	6.36 µM
CSc1ncnc2c1cnn2Cc1cn(COCCO)nn1	96.3 µM	
CC(=O)Nc1ccc(C(=O)CCl)cc1	37.1 µM	16.9 µM
COc1cc2ccc3c4ccccc4cnc3c2cc1OC	> 100 µM	
CN=C(N)c1ccc(N=C(N)c2ccc(-c3ccc(C(N)=Nc4ccc(C(N)=NC)cc4)cc3)cc2)cc1	> 100 µM	> 100 µM
Cc1ccc(CNc2ccc(Br)cc2)cc1	> 100 µM	
Cc1ccc(NC(=O)CCc2nc(=S)[nH][nH]2)cc1	> 100 µM	
CC(C)OC(=O)c1ccc(NCc2cc(O)ccc2O)cc1	98.8 µM	
O=C1NC(=NCCc2ccc(F)cc2)S/C1=C\c1ccc2ncccc2c1	> 25 µM	> 25 µM
Cc1ccc(S(=O)c2cccs2)cc1 (stereo unspecified)	> 100 µM	
COc1cc(/C=C2\C(=O)N(Cc3ccc(Cl)cc3)c3ccccc32)cc(OC)c1OC	26.6 µM	3.72 µM
CC1(C)OP(=O)(c2ccccc2)C=C1Sc1ccc([N+](=O)[O-])cc1[N+](=O)[O-] (stereo unspecified)	> 100 µM	
COc1ccc(N2C(=O)c3c(c4[nH]c5ccccc5c4c4ccc(C(C)(C)C)cc34)C2=O)cc1	> 100 µM	
Clc1nccc2c(-c3csc(-c4c[nH]c5ccc(Br)cc45)n3)c[nH]c12	22.5 µM	3.54 µM
CN(C)c1ccc(/C=C/C(=O)c2ccc(O)cc2)cc1	> 100 µM	
CCOC(=O)Cc1cc(OC)c(OC)cc1/C(Cl)=C(\CO)c1ccc(OC)c(OC)c1	> 100 µM	
COc1ccccc1/C=C(/C)[N+](=O)[O-]	32.8 µM and 22.1 µM	

Structure (SMILES)	TGI	GI50
CCOC1OC(CO)C(O)CC1n1ccc(=O)[nH]c1=O (stereo unspecified)	> 100 µM	
COC1=C(N)C(=O)c2nc(-c3nc(C(=O)O)c(C)c(-c4ccc(OC)c(OC)c4O)c3N)ccc2C1=O		0.0554 µM and 0.0296 µM and 0.0136 µM
CO/C(N)=C(\C#N)N=Cc1ccc2ccccc2c1	> 100 µM	
CCN1CCN(c2nc(C)cc(N(CCCNc3ccnc4cc(Cl)ccc34)Cc3ccc4c(c3)OCO4)n2)CC1	6.13 µM	2.14 µM
COC1C2C[C@@H](O)CCC2C(C(=O)OCCl)C[C@H]1O (stereo partly specified)	> 100 µM	
O=C/C(=C1/C=Cc2cc([N+](=O)[O-])ccc2S1)c1ccccc1	> 100 µM	
CCNC(=O)C(C)C1CCC2(C)C=CC(=O)C(C)=C2C1O (stereo unspecified)	> 100 µM	
CC(C)/C=C1\CCC(CN(C)C)C1=O (stereo unspecified)	31.5 µM	
C=CCCC1(O)C(O)C(CO)O[C@H](O[C@@]2(CO)OC(CO)C(O)C2O)C1O (stereo partly specified)	> 100 µM	
CS(=O)(=O)N1CC(CCl)c2ccc(NO)cc21 (stereo unspecified)	> 76.8 µM	
CCOC(=O)C(C)(NC(=O)c1ccc(NCc2ccc3nc(NC(=O)c4ccccc4)nc(NC(=O)c4ccccc4)c3c2)cc1)C(=O)OCC	68 µM	
CC(C)(C)c1cc(C(=O)Nc2ccccc2C(=O)NCCN)cc(C(C)(C)C)c1	3.7 µM	1.93 µM
O=C1/C(=C/c2ccc(Cl)c(Cl)c2)CN(C(=O)C(Cl)Cl)C/C1=C\c1ccc(Cl)c(Cl)c1	1.4 µM	0.355 µM
FC(F)(F)c1ccc(C2ON=C(c3ccccc3)N2C23CC4CC(CC(C4)C2)C3)cc1 (stereo unspecified)	> 10 µM	
O=C(c1ccc(O)cc1O)C1C(c2ccc(O)cc2)OC(c2ccc(O)cc2)C1C(=O)c1ccc(O)cc1O (stereo unspecified)	44.4 µM	
Clc1ccc(Nc2nnc(CNc3ccc(-c4nnc(Nc5ccc(Cl)cc5)s4)cc3)s2)cc1	85.9 µM	
CC(=O)C1CCN(c2ccccc2)C1 (stereo unspecified)	> 100 µM	
N#CC(NNC(=O)Cc1ccccc1)c1cccc(O)c1 (stereo unspecified)	> 100 µM	
CC1=NN(c2nc(N)nc(NS(=O)(=O)c3cc(C)c(Cl)cc3S)n2)C(C)(C)C1	> 10 µM	
CCCn1c2c(c3ccccc3c1=O)C(=O)c1ccccc1-2	> 100 µM	
Cc1cccc(C2ON=C(c3ccccc3)N2C23CC4CC(CC(C4)C2)C3)c1 (stereo unspecified)	> 10 µM	
CC(C)(C)N=CN1C=Cc2nc3ccccc3cc2C1	> 100 µM	
O=C1OC(c2ccccc2)=NC1c1ccccc1 (stereo unspecified)	> 100 µM	
Clc1ccc(Cl)c(N=Nc2cc3c4c(c2)CCN4CCC3)c1	> 10 µM	
O=c1[nH]nc(Cc2ccccc2)n1/N=C/c1cccs1	> 100 µM	

Structure (SMILES)	TGI	GI50
C[C@]12C=CC(=O)C=C1CC[C@@H]1[C@@H]2CC[C@@]2(C)[C@H]1CC[C@]2(O)C(N)=O	> 100 µM	
O=C(Cc1ccccc1)NN1C(=O)C(Cl)C1c1ccccc1Cl (stereo unspecified)	> 100 µM	
O=C(Nc1ccc(Oc2ccc(F)cc2)cc1)[C@@H]1C[C@@H](Cc2ccc(F)cc2)CN1C(=O)Cn1ccnn1	> 65.7 µM	16.8 µM
CC1=NN=C(C)C1N=Nc1ccc2nc(C)[nH]c2c1	> 100 µM	
O=C(Nc1ccc([N+](=O)[O-])cc1)Nn1cnnc1	> 100 µM	
CC1(C)CCN2C(=O)C34CCCC3CC21S4 (stereo unspecified)	> 100 µM	
CC(C)=CCCC(C)(OC1OC(CO)C(O)C(O)C1O)C1CCC2(C)C1C(O)CC1C3(C)CCC(O)C(C)(C)C3C(OC3OC(CO)C(O)C(O)C3OC3OC(C)C(O)C(O)C3O)CC12C (stereo unspecified) (tested in a mixture with another compound)	> 75 µM	
O=S(O)CCCCCSSc1ccccc1	> 100 µM	
CCN(CC)CCCNc1c2c(Cl)cc(Cl)cc2nc2nc(=O)[nH]c(C)c12	> 100 µM	
COc1ccc(C2=Nc3c(nc(OC)[nH]c3=O)NC(c3ccccc3)C2)cc1 (stereo unspecified)	> 100 µM	
OCC1O[C@H](O[C@@H]2CCCN3CC(O)C(O)[C@@H]23)C(O)C(O)C1O (stereo partly specified)	> 100 µM	
CCCCOCCOCCOC1=CC(=O)c2c(O)ccc(O)c2C1=O	3.06 µM	
O=C1N=C2SC=C(NC(=S)Nc3ccccc3)N2NC12c1ccccc1-c1ccccc12	> 10 µM	
COc1cc(OC2OC(CO)C(O)C(O)C2O)c2c(O)c3c(=O)cc(C)oc3cc2c1 (stereo unspecified)	> 100 µM	
COC(=O)C1CC2C=CC=CC(=O)C2(C)C1 (stereo unspecified)	> 100 µM	
CN=c1ss/c(=N\C(=S)N(C)C)n1C	> 100 µM	
NC1NC=NC2C1N=CN2C1OC(CO)C2[O][Sn][O]C21 (stereo unspecified)	> 100 µM	> 100 µM
O=C1NC(=NCc2ccccc2Cl)S/C1=C\c1ccc2ncccc2c1	> 25 µM	2.92 µM
Nc1nc(NNc2cccc(F)c2)cc(=O)[nH]1	> 100 µM	
CCOCC1(COCC)CCC(c2[nH]ncc2CN(C)CCNC)CC1	> 100 µM	> 100 µM
[N-]=[N+]=Nc1ccccc1-c1ccccc1[N+](=O)[O-]	> 100 µM	
FC(F)(F)c1ccc2c(c1)N(CCCNCCN1CCOCC1)c1ccccc1S2	23.2 µM	
O=C1Oc2ccccc2C1C/C(=N\Nc1ccccc1)c1ccccc1O (stereo unspecified)	> 100 µM	
CCOC(=O)c1c2ccc(/C=C/c3ccccn3)ccc-2c(C(=O)OCC)c1N	3.79 µM	
CCN(CC)c1ccc2nc3ccc(N=Nc4ccc(N(C)C)cc4)cc3[n+](-c3ccccc3)c2c1	5.3 µM	0.487 µM

— PubChem BioAssay (NCI)
